# Assay results published in the supplement of paper PMC8728848.
# The list shows a part of the results.
# B1: PX9896A-bth-573-26-573 (Bacteroides thetaiotaomicron) (protein)
# chain: ETNNLKTKEDMYKYFGTSKSMLTHVYSYMPQGYQLFATSGGIFTEDRYSMRDCASDDGEFGAYADNIQNTNNGNWSPIKTYDDSWTLYRGIRAANSFIAEIAQVDFTRYEHDGQYTNWMKQLKYFPYEARVLRAHYFFELARRYGDIAMPLEVLTEEEANTIGKTPFSEVISFIVSECDDAANNLPDSYVNEPGAEIGRVTKGFAMAVKSKALLYAASKLHNPSMDTELWKKSAKAAIDIINTGLYSLDPQESANNLDSKEVVLMRINGDDSDFEMFNLPLRMTAGTRTSSLIPYSNYPSQNLVDAFETVNGYKVTLENTGWVCEDPAFDPQSPYENRDKRFYRAILANGMSFKDYTIETFKGGADDGIVSQGGSPTGYFLRKYIQEATSFEPGKEAVSKHHWVIYRYAETLLTYAESMVNAFNDVNYTDETYKYSALWAINEVRKNADMPLIPSMGKDEFMERLYNEWRVEFAFEDHRFWDVRRWKIADTTQRELYGVKIEKQADGTFNFYKNLYETRNWRDCMYLYPIPQSELYKNTNLNPQNTGW
# Legend:
# Experiment in all cases: glycan array binding signal (z-score within array); higher = stronger binding
# Conditions in all cases: glycan notation: IUPAC condensed, linker removed
# [1] = biological target: Fuc(a1-2)Gal6S(b1-3)GlcNAc6S
# In short: (§1)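 Columns mapping to the same glycan were averaged after glycan names were converted to IUPAC-condensed notation. The data come from 3228 arrays in the Consortium for Functional Glycomics database, limited to those with an available protein sequence. Binding is reported as a within-array Z-score averaged across arrays of one protein sequence and across linkers.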
# Fuc(a1-2)Gal6S(b1-4)Glc = biological target: Fuc(a1-2)Gal6S(b1-4)Glc
# In short: as §1
# [2] = biological target: Fuc(a1-2)Gal6S(b1-4)Glc6S
# In short: as §1
# Fuc(a1-2)[Gal(a1-3)]Gal = biological target: Fuc(a1-2)[Gal(a1-3)]Gal
# In short: as §1
# [3] = biological target: Fuc(a1-2)[Gal(a1-3)]Gal(b1-3)GalNAc
# In short: as §1
# [4] = biological target: Fuc(a1-2)[Gal(a1-3)]Gal(b1-3)GalNAc(b1-3)Gal(a1-4)Gal(b1-4)Glc
# In short: as §1
# [5] = biological target: Fuc(a1-2)[Gal(a1-3)]Gal(b1-3)GlcNAc
# In short: as §1
# [6] = biological target: Fuc(a1-2)[Gal(a1-3)]Gal(b1-3)GlcNAc(b1-2)Man(a1-3)[Fuc(a1-2)[Gal(a1-3)]Gal(b1-3)GlcNAc(b1-2)Man(a1-6)]Man(b1-4)GlcNAc(b1-4)GlcNAc
# In short: as §1
# [7] = biological target: Fuc(a1-2)[Gal(a1-3)]Gal(b1-3)GlcNAc(b1-2)Man(a1-3)[Fuc(a1-2)[Gal(a1-3)]Gal(b1-3)GlcNAc(b1-2)Man(a1-6)]Man(b1-4)GlcNAc(b1-4)[Fuc(a1-6)]GlcNAc
# In short: as §1
# [8] = biological target: Fuc(a1-2)[Gal(a1-3)]Gal(b1-3)GlcNAc(b1-3)GalNAc
# In short: as §1
# [9] = biological target: Fuc(a1-2)[Gal(a1-3)]Gal(b1-3)GlcNAc(b1-6)GalNAc
# In short: as §1
# [10] = biological target: Fuc(a1-2)[Gal(a1-3)]Gal(b1-4)Glc
# In short: as §1
# [11] = biological target: Fuc(a1-2)[Gal(a1-3)]Gal(b1-4)GlcNAc
# In short: as §1
# [12] = biological target: Fuc(a1-2)[Gal(a1-3)]Gal(b1-4)GlcNAc(b1-2)Man
# In short: as §1
# [13] = biological target: Fuc(a1-2)[Gal(a1-3)]Gal(b1-4)GlcNAc(b1-2)Man(a1-3)[Fuc(a1-2)[Gal(a1-3)]Gal(b1-4)GlcNAc(b1-2)Man(a1-6)]Man(b1-4)GlcNAc(b1-4)GlcNAc
# In short: as §1
# [14] = biological target: Fuc(a1-2)[Gal(a1-3)]Gal(b1-4)GlcNAc(b1-2)Man(a1-3)[Fuc(a1-2)[Gal(a1-3)]Gal(b1-4)GlcNAc(b1-2)Man(a1-6)]Man(b1-4)GlcNAc(b1-4)[Fuc(a1-6)]GlcNAc
# In short: as §1
# [15] = biological target: Fuc(a1-2)[Gal(a1-3)]Gal(b1-4)GlcNAc(b1-3)GalNAc
# In short: as §1
# [16] = biological target: Fuc(a1-2)[Gal(a1-3)]Gal(b1-4)GlcNAc(b1-3)[Fuc(a1-2)[Gal(a1-3)]Gal(b1-4)GlcNAc(b1-6)]GalNAc
# In short: as §1
# [17] = biological target: Fuc(a1-2)[Gal(a1-3)]Gal(b1-4)GlcNAc(b1-6)GalNAc
# In short: as §1
# [18] = biological target: Fuc(a1-2)[Gal(a1-3)]Gal(b1-4)[Fuc(a1-3)]Glc
# In short: as §1
# [19] = biological target: Fuc(a1-2)[Gal(a1-3)]Gal(b1-4)[Fuc(a1-3)]GlcNAc
# In short: as §1
# [20] = biological target: Fuc(a1-2)[Gal(a1-3)]Gal(b1-4)[Fuc(a1-3)]GlcNAc(b1-3)GalNAc
# In short: as §1
# [21] = biological target: Fuc(a1-2)[Gal(a1-4)]Gal(b1-4)GlcNAc
# In short: as §1
# [22] = biological target: Fuc(a1-2)[GalNAc(a1-3)]Gal
# In short: as §1
# [23] = biological target: Fuc(a1-2)[GalNAc(a1-3)]Gal(b1-3)GalNAc(a1-3)[Fuc(a1-2)]Gal(b1-4)GlcNAc
# In short: as §1
# [24] = biological target: Fuc(a1-2)[GalNAc(a1-3)]Gal(b1-3)GalNAc(b1-3)Gal(a1-4)Gal(b1-4)Glc
# In short: as §1
# [25] = biological target: Fuc(a1-2)[GalNAc(a1-3)]Gal(b1-3)GlcNAc
# In short: as §1
# [26] = biological target: Fuc(a1-2)[GalNAc(a1-3)]Gal(b1-3)GlcNAc(b1-2)Man(a1-3)[Fuc(a1-2)[GalNAc(a1-3)]Gal(b1-3)GlcNAc(b1-2)Man(a1-6)]Man(b1-4)GlcNAc(b1-4)GlcNAc
# In short: as §1
# [27] = biological target: Fuc(a1-2)[GalNAc(a1-3)]Gal(b1-3)GlcNAc(b1-2)Man(a1-3)[Fuc(a1-2)[GalNAc(a1-3)]Gal(b1-3)GlcNAc(b1-2)Man(a1-6)]Man(b1-4)GlcNAc(b1-4)[Fuc(a1-6)]GlcNAc
# In short: as §1
# [28] = biological target: Fuc(a1-2)[GalNAc(a1-3)]Gal(b1-3)GlcNAc(b1-3)GalNAc
# In short: as §1
# [29] = biological target: Fuc(a1-2)[GalNAc(a1-3)]Gal(b1-3)GlcNAc(b1-6)GalNAc
# In short: as §1
# [30] = biological target: Fuc(a1-2)[GalNAc(a1-3)]Gal(b1-4)Glc
# In short: as §1
# [31] = biological target: Fuc(a1-2)[GalNAc(a1-3)]Gal(b1-4)GlcNAc
# In short: as §1
# [32] = biological target: Fuc(a1-2)[GalNAc(a1-3)]Gal(b1-4)GlcNAc(b1-2)Man
# In short: as §1
# [33] = biological target: Fuc(a1-2)[GalNAc(a1-3)]Gal(b1-4)GlcNAc(b1-2)Man(a1-3)[Fuc(a1-2)[GalNAc(a1-3)]Gal(b1-4)GlcNAc(b1-2)Man(a1-6)]Man(b1-4)GlcNAc(b1-4)GlcNAc
# In short: as §1
# [34] = biological target: Fuc(a1-2)[GalNAc(a1-3)]Gal(b1-4)GlcNAc(b1-2)Man(a1-3)[Fuc(a1-2)[GalNAc(a1-3)]Gal(b1-4)GlcNAc(b1-2)Man(a1-6)]Man(b1-4)GlcNAc(b1-4)[Fuc(a1-6)]GlcNAc
# In short: as §1
# [35] = biological target: Fuc(a1-2)[GalNAc(a1-3)]Gal(b1-4)GlcNAc(b1-3)Gal(b1-4)GlcNAc
# In short: as §1
# [36] = biological target: Fuc(a1-2)[GalNAc(a1-3)]Gal(b1-4)GlcNAc(b1-3)Gal(b1-4)GlcNAc(b1-3)Gal(b1-4)GlcNAc
# In short: as §1
# [37] = biological target: Fuc(a1-2)[GalNAc(a1-3)]Gal(b1-4)GlcNAc(b1-3)GalNAc
# In short: as §1
# [38] = biological target: Fuc(a1-2)[GalNAc(a1-3)]Gal(b1-4)GlcNAc(b1-3)[Fuc(a1-2)[GalNAc(a1-3)]Gal(b1-4)GlcNAc(b1-6)]GalNAc
# In short: as §1
# [39] = biological target: Fuc(a1-2)[GalNAc(a1-3)]Gal(b1-4)GlcNAc(b1-6)GalNAc
# In short: as §1
# [40] = biological target: Fuc(a1-2)[GalNAc(a1-3)]Gal(b1-4)[Fuc(a1-3)]GlcNAc
# In short: as §1
# [41] = biological target: Fuc(a1-2)[GalNAc(a1-3)]Gal(b1-4)[Fuc(a1-3)]GlcNAc(b1-3)GalNAc
# In short: as §1
# [42] = biological target: Fuc(a1-2)[GalNAc(a1-4)]Gal(b1-4)GlcNAc
# In short: as §1
# [43] = biological target: Fuc(a1-2)[GalNAc(b1-3)]Gal
# In short: as §1
binder,measurement,setting,value
B1,glycan array binding signal (z-score),[1],1.27
same,glycan array binding signal (z-score),Fuc(a1-2)Gal6S(b1-4)Glc,-0.066
same,glycan array binding signal (z-score),[2],-0.089
same,glycan array binding signal (z-score),Fuc(a1-2)[Gal(a1-3)]Gal,0.247
same,glycan array binding signal (z-score),[3],0.057
same,glycan array binding signal (z-score),[4],-0.559
same,glycan array binding signal (z-score),[5],-0.445
same,glycan array binding signal (z-score),[6],5.75
same,glycan array binding signal (z-score),[7],-0.41
same,glycan array binding signal (z-score),[8],-0.763
same,glycan array binding signal (z-score),[9],0.399
same,glycan array binding signal (z-score),[10],-0.838
same,glycan array binding signal (z-score),[11],-0.498
same,glycan array binding signal (z-score),[12],-0.24
same,glycan array binding signal (z-score),[13],-0.04
same,glycan array binding signal (z-score),[14],0.129
same,glycan array binding signal (z-score),[15],-0.517
same,glycan array binding signal (z-score),[16],-0.112
same,glycan array binding signal (z-score),[17],-0.304
same,glycan array binding signal (z-score),[18],-1.01
same,glycan array binding signal (z-score),[19],-0.567
same,glycan array binding signal (z-score),[20],-0.545
same,glycan array binding signal (z-score),[21],0.211
same,glycan array binding signal (z-score),[22],-0.395
same,glycan array binding signal (z-score),[23],0.607
same,glycan array binding signal (z-score),[24],-0.599
same,glycan array binding signal (z-score),[25],-0.255
same,glycan array binding signal (z-score),[26],-0.229
same,glycan array binding signal (z-score),[27],-0.618
same,glycan array binding signal (z-score),[28],0.284
same,glycan array binding signal (z-score),[29],-0.61
same,glycan array binding signal (z-score),[30],0.401
same,glycan array binding signal (z-score),[31],-0.414
same,glycan array binding signal (z-score),[32],-0.758
same,glycan array binding signal (z-score),[33],0.585
same,glycan array binding signal (z-score),[34],0.289
same,glycan array binding signal (z-score),[35],0.12
same,glycan array binding signal (z-score),[36],-0.461
same,glycan array binding signal (z-score),[37],-0.608
same,glycan array binding signal (z-score),[38],-0.591
same,glycan array binding signal (z-score),[39],0.088
same,glycan array binding signal (z-score),[40],-0.795
same,glycan array binding signal (z-score),[41],0.168
same,glycan array binding signal (z-score),[42],-0.008
same,glycan array binding signal (z-score),[43],-0.22
